According to PubChem BioAssay AID1508623 (National Center for Advancing Translational Sciences (NCATS), 2021):
Among all 48,000 compounds or so, about 450 (0.94%) were called active. Inconclusive means that the source gave no clear call. Such entries were picked first, then a sample of the others. Calls follow the shape of the dose curve; as a rule, active = well fitted inhibition curve with a large enough effect; inconclusive = small, poorly fitted or top-dose-only effect; inactive = no such curve, though single readings can be large or run the other way. Where the call is inconclusive, the potency comes from a doubtful curve fit.

Test: Primary qHTS for Identification of Small Molecule Inhibitors of Huntingtin Promoter Activity; also: nearly all actives have a fitted effect of over 50% in size
Conditions: HEK293 HTT promoter firefly luciferase reporter (activity 0% = vehicle and -100% = no light), 24 h; series mostly up to 57.5 µM
Outline: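 Firefly luciferase signal from promoter-reporter HEK293 cells was scaled between vehicle (0%) and zero RLU (-100%). Compounds were tested at final concentrations of up to 57.5 uM over 24 h at 37 degrees C. PTC124 at 50 uM final served as control inhibitor.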
Potency is read from the fitted curve at half-maximal effect; tags tell the direction and shape of the fitted curve.

Potency, inactive:
CCCCN(C)C(=O)CSc1c2c(nc3ccc(Cl)cc13)CCCC2
CCN(CCCNC(=O)c1cc2c(=O)n(C)c3ccccc3c2s1)c1ccccc1
COc1ccc(CCNc2ncnc3c2cnn3-c2ccc(C)c(Cl)c2)cc1
Cc1ccc(Nc2nc(N)nc(CSc3nc4ccccc4s3)n2)cc1
CN1CCN(c2nc3c(S(=O)(=O)c4ccc(Cl)cc4)nnn3c3ccsc23)CC1
COc1ccc(NC(=O)CSc2nc3ccccc3nc2N2CCCCC2)cc1
Cc1ccc(C)c(Cn2c(=O)n(-c3ccccc3)c(=O)c3c4c(sc32)CCCC4)c1
COc1nnc(-c2ccc(N3CCCCC3)c(NC(=O)c3ccc(C)cc3)c2)c2ccccc12
CCc1ccc(-c2cn3nc(CC)sc3n2)cc1
CCCCNC(=O)CCCN1C(=O)c2ccccc2Sc2ncccc21
CC(C)c1onc(-c2c(Cl)cccc2Cl)c1COc1ccc(C=Cc2cccc(C(=O)O)c2)c(Cl)c1
CC(CNC(=O)CCCn1c(=O)c2cccn2c2ccc(F)cc21)c1ccccc1 (configuration not stated)
O=C(C1CCCCC1)N1CC(=O)N2CCCc3ccccc3C2C1 (configuration not stated)
Cc1cccc(CN2CCN(C(c3ccccc3)c3ccc(Cl)cc3)CC2)c1 (configuration not stated)
CCOc1ccc(-c2nc3cc(NC(=O)COc4cccc(C)c4)ccc3o2)cc1
COc1cc(CN(C(=O)c2ccc(Cl)cc2)C2CCS(=O)(=O)C2)cc(OC)c1OC (configuration not stated)
CC(=O)Nc1ccc(NC(=O)c2cc(-c3ccc4c(c3)OCCO4)on2)cc1

Potency, inconclusive:
CCc1ccc(S(=O)(=O)Nc2ccc3c(c2)sc(=O)n3C)cc1 15.8 µM [inhibitor, partial curve, poor fit]
O=C(NCCS(=O)(=O)N1CCN(c2cccc(Cl)c2)CC1)C(c1ccccc1)c1ccccc1 39.8 µM [inhibitor, single point]
COc1ccccc1NC(=O)CN1C(=O)C(c2ccc(F)cc2)=NC12CCCCC2 31.6 µM [inhibitor, single point]
COc1cccc(N2CCN(C(=O)c3cnn(-c4ccccc4Cl)c3C3CCN(C(=O)OC(C)(C)C)CC3)CC2)c1 22.4 µM [inhibitor, single point]
CCCCc1ccc(NS(=O)(=O)c2cc3c4c(c2)CC(=O)N4CCC3)cc1 31.6 µM [inhibitor, partial curve, poor fit]
Cc1ccc(S(=O)(=O)C(CNC(=O)C(=O)NCCc2ccc(Cl)cc2)c2ccco2)cc1 (configuration not stated) 31.6 µM [inhibitor, partial curve, poor fit]
Cc1cc(C)cc(NC(=O)CSc2ccc(-c3cccs3)nn2)c1 39.8 µM [inhibitor, single point]
Cc1nc(-c2ccc(F)cc2)sc1CCNC(=O)c1cccs1 39.8 µM [inhibitor, single point]
CCOC(=O)c1[nH]c2c(c1Cc1ccccc1)C(=O)CC(c1ccccc1)C2 (configuration not stated) 28.2 µM [inhibitor, single point]
O=C(Nc1ccc(Br)cc1)c1cc(S(=O)(=O)NC2CCCC2)ccc1F 35.5 µM [inhibitor, single point]
COc1ccc(-c2onc(C)c2C)cc1S(=O)(=O)NCCc1ccccc1 28.2 µM [inhibitor, single point]
COc1ccc(CCN2C(=O)N(c3cccc(OC)c3)C(=O)C2CC(=O)Nc2ccccc2)cc1 (configuration not stated) 28.2 µM [inhibitor, partial curve]
O=C(c1ccc2c(c1)N(Cc1cccc(Cl)c1)C(=O)c1ccccc1S2=O)N1CCC(Cc2ccccc2)CC1 (configuration not stated) 15.8 µM [inhibitor, partial curve]
CCOC(=O)c1c(S(=O)(=O)N2CCC(C(=O)Nc3ccc(C)c(Cl)c3)CC2)c(C)n(C)c1C 39.8 µM [inhibitor, partial curve, poor fit]
O=S(=O)(c1ccc(-c2cnc(C3CC3)o2)cc1)N1CCN(c2ccc(F)cc2)CC1 1.58 µM [inhibitor, full curve]
COc1ccccc1CNC(=O)Cn1cc2c(n1)-c1c(oc(C(=O)N3CCOCC3)c1C)CC2 39.8 µM [inhibitor, single point]
CC(C)(C)OC(=O)N1CCC(c2c(C(=O)N3CCN(Cc4ccccc4)CC3)cnn2-c2cccc(Cl)c2)CC1 14.1 µM [inhibitor, partial curve, poor fit]
Cc1cccc(N(C)S(=O)(=O)c2cc(-c3cnc(C4CC4)o3)ccc2C)c1 20 µM [inhibitor, partial curve, poor fit]
O=C(CCNS(=O)(=O)c1ccc2c(c1)CCN2C(=O)C1CC1)N1CCN(c2cccc(Cl)c2)CC1 39.8 µM [inhibitor, partial curve, poor fit]
CCc1ccc(C2c3c(-c4ccccc4O)n[nH]c3C(=O)N2Cc2cccnc2)cc1 (configuration not stated) 31.6 µM [inhibitor, partial curve, poor fit]
CCC(=O)N1CCc2cc(CNS(=O)(=O)c3ccc(CC(C)C)cc3)ccc21 31.6 µM [inhibitor, partial curve, poor fit]
Cc1ccc(CS(=O)(=O)c2ncc(Cl)c(C(=O)Nc3nnc(C(C)C)s3)n2)cc1 39.8 µM [inhibitor, single point]
Cc1cccc(N2CCN(C(=O)Cn3c(-c4cccs4)cc4ccccc43)CC2)c1C 7.94 µM [inhibitor, partial curve, poor fit]
Cc1ccc2c(CC(=O)Nc3ccc(S(=O)(=O)N4CCCCC4)cc3)coc2c1C 20 µM [inhibitor, partial curve]
O=C(NCC1CCN(Cc2ccccc2F)CC1)Nc1ccc(F)c(Cl)c1 14.1 µM [inhibitor, partial curve, poor fit]
COc1ccc(-c2nc3sc(CCNS(=O)(=O)c4ccccc4)c(C)n3n2)cc1 28.2 µM [inhibitor, partial curve, poor fit]
O=C1c2[nH]nc(-c3ccc(F)cc3)c2C(c2ccccc2F)N1c1ccccc1 (configuration not stated) 25.1 µM [inhibitor, partial curve, poor fit]
COc1cccc(C(=O)N(Cc2nc(-c3ccc(Cl)cc3)no2)C(C)C)c1OC 39.8 µM [inhibitor, single point]
COc1ccc(NC(=O)c2nc(-c3ccc(C)cc3)n3c2CCCCC3)cc1 31.6 µM [inhibitor, single point]
Cc1cccc(C(=O)NNc2ncnc3c2cnn3-c2ccc(C)c(Cl)c2)c1 3.16 µM [inhibitor, full curve]
CCOc1ccccc1Oc1nc(C)nc2c1oc1ccccc12 4.47 µM [inhibitor, full curve]
CCC(C(=O)NC1CCCCC1)n1c(SCc2cccc(F)c2)nc2ccncc21 (configuration not stated) 35.5 µM [inhibitor, partial curve, poor fit]
Cc1ccc(Cl)cc1Nc1nn2c(=O)c3ccc(C(=O)NC(C)c4ccccc4)cc3nc2s1 (configuration not stated) 4.47 µM [inhibitor, full curve]
Cc1ccc(Cl)cc1N1CCN(C(=O)CCS(=O)(=O)c2ccc3c(c2)oc(=O)n3C)CC1 15.8 µM [inhibitor, partial curve, poor fit]
CN(C(=O)CSc1nc2ccccc2n1Cc1ccccc1C#N)c1ccccc1 35.5 µM [inhibitor, partial curve, poor fit]
CCCCCCCCCCCCCC[N+](C)(C)Cc1ccccc1 20 µM [inhibitor, partial curve, poor fit]
CCOc1ccc(S(=O)(=O)N(CC(=O)Nc2ccc3c(c2)OCO3)c2ccc(C)cc2)cc1 31.6 µM [inhibitor, partial curve, poor fit]
Cc1ccc2onc(CNC(=O)N3CCN(c4cccc(C(F)(F)F)c4)CC3)c2c1 39.8 µM [inhibitor, single point]
COc1cccc(C(=O)n2nc(-c3cccnc3)nc2NCc2ccc(F)cc2)c1 25.1 µM [inhibitor, partial curve, poor fit]
Cc1c(Cl)cccc1NC(=O)Nc1ccc2snnc2c1 39.8 µM [inhibitor, single point]
CCCC1=Nc2cc(C(=O)NCCOC)ccc2Sc2ccccc21 5.62 µM [inhibitor, partial curve]
O=C(Cn1c(=O)oc2cc(S(=O)(=O)N3CCCCC3)ccc21)NCc1ccc(F)cc1 22.4 µM [inhibitor, partial curve]
COc1ccc(-c2nc(Cn3c(SCc4ccccc4F)nc4cccnc43)c(C)o2)cc1 25.1 µM [inhibitor, single point]
COC(=O)c1c(NC(=O)c2ccc(S(=O)(=O)N(C)C3CCCCC3)cc2)sc2c1CCN(C)C2 17.8 µM [inhibitor, single point]

Potency, active:
CC(C)CCNC(=O)C1CCN(C(=O)c2cc3sccc3n2Cc2ccc(Cl)cc2)CC1 25.1 µM
